In all, about 310,000 compounds went through this assay and about 2,200 (0.71%) showed an effect of 50% or more. Effects have a minus sign here. The list shows a part of the results.

The experiment deals with human ether-à-go-go-related gene (hERG) potassium channel (human, UniProt Q12809). Nature of the experiment: primary screen, population patch clamp on CHO cells stably expressing hERG.
Chain of human ether-à-go-go-related gene (hERG) potassium channel (Q12809 whole entry, looked up): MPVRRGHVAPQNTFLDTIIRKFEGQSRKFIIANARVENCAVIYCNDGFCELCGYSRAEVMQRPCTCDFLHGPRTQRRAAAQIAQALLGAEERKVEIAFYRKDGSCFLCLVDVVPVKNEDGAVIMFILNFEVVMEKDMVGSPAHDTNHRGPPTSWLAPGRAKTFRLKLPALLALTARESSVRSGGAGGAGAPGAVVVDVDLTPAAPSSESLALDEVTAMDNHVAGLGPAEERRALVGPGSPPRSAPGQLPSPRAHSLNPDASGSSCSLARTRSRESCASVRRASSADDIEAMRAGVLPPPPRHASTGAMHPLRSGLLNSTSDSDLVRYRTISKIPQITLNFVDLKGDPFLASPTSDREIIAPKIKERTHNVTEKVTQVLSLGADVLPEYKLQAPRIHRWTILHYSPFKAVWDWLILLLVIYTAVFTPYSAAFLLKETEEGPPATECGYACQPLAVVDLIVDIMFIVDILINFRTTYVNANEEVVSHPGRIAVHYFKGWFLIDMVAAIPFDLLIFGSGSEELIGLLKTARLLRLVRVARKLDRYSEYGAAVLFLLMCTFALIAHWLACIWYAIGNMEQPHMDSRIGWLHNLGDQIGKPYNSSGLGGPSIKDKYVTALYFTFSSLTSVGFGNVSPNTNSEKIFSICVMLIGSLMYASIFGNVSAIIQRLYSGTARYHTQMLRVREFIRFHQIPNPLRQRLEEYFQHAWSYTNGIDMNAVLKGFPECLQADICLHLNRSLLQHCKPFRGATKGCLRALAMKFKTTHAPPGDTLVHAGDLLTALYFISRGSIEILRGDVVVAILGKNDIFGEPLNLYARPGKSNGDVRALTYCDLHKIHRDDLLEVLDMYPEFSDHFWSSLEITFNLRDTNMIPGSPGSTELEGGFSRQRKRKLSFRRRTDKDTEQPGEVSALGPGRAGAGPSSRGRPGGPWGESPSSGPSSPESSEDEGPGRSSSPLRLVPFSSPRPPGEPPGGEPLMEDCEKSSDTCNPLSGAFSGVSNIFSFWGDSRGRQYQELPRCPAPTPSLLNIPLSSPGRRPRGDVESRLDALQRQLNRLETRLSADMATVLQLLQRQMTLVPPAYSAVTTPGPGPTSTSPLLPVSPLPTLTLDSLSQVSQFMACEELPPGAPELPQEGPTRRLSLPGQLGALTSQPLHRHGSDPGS
With `Cc1ccccc1-c1nc(S(=O)(=O)c2ccc(Cl)cc2)c(NCCN2CCOCC2)o1`, the “hERG current change (%, negative = inhibition) at 1uM” value is recorded as -2.32%.
The figure for `Nc1cc(=O)[nH]c(SCC(=O)N2CCN(S(=O)(=O)c3ccc4ccccc4c3)CC2)n1` is 11.5%.
With `COc1ccc(OCc2nnc(SCC(=O)N3C(C)CCCC3C)o2)cc1` (stereo not drawn), the “hERG current change (%, negative = inhibition) at 1uM” value amounted to 15.8%.
As for `Cc1cc(C)c(NC(=O)CCN2CCN(Cc3ccccc3)CC2)c(C)c1`, the figure is -2.7%; as for `COc1ccccc1C(=O)Nc1ccc2c(c1)nc1n2CCN(Cc2ccccc2)C1`, 8.94%; as for `Cc1ccc(CC(=O)N2CCC(c3nc4c(nnn4Cc4ccccc4)c(=O)[nH]3)CC2)cc1`, 12%.
As for `Cc1cc(C)c(S(=O)(=O)N(C)c2ccccc2)c(C)c1`, the figure is 8.08%; as for `NC(=O)NC(=O)CSc1nnc(-c2ccco2)n1Cc1ccccc1`, 10.1%; as for `CC(C(=O)Nc1ccccc1C(=O)O)n1c(C(F)(F)F)nc2ccccc21` (stereo not drawn), 9.69%.
The figure for `COc1ccccc1CNC(=O)CCNC(=O)Cn1cnc2ccccc2c1=O` is 16.7%; for `Cc1ccc(C)c(S(=O)(=O)N2CCN(C(=O)c3cnccn3)CC2)c1` it is -2.69%.
Take `CCOCCCNC(=O)C(NC(=O)c1ccccc1O)c1ccccc1` (stereo not drawn): the “hERG current change (%, negative = inhibition) at 1uM” value was found to be 13%.
As to `Cc1ccccc1C(C(=O)NC1CCCCC1)N(C(=O)c1ccccn1)c1cccnc1` (stereo not drawn), the “hERG current change (%, negative = inhibition) at 1uM” value was -4.53%.
In the case of `O=C(NCC(=O)N1CCN(c2ccccc2O)CC1)c1ccc(Br)o1`, the “hERG current change (%, negative = inhibition) at 1uM” value is listed as 13.8%.
Turning to `COc1ccc(Cc2nnc(Nc3ccccc3OC)[nH]c2=O)cc1`, the “hERG current change (%, negative = inhibition) at 1uM” value turned out to be 14.2%.
The figure for `CN(C)c1ccc(CNC(=O)c2cc(S(=O)(=O)N3CCOCC3)cn2C)cc1` is 4.82%; for `O=C(CCn1cnc(-c2ccccc2)c1-c1ccccc1)N/N=C/c1ccc(O)cc1` it is 9.95%; for `CC(=O)NNC(=O)c1sc(=S)n2c1[nH]c(=O)c1sccc12` it is 13.5%.
The figure for `CC1CC(=O)Nc2ccccc2N1C(=O)CN1CCN(C=O)CC1` (stereo not drawn) is 11.7%.
For the compound `CCN(CCn1cccn1)C(=O)CC1C(=O)NCCN1Cc1ccc(F)c(F)c1` (stereo not drawn), the “hERG current change (%, negative = inhibition) at 1uM” value came out at 2.62%.
With `O=C(CSc1ccc(F)cc1)NCCc1ccc(Cl)cc1`, the “hERG current change (%, negative = inhibition) at 1uM” value was found to be 14.3%.
As for `CC(C)CCNC(=O)C1(O)c2ccccc2NC(=O)N1c1ccc(Cl)cc1` (stereo not drawn), the figure is 17.3%; as for `N#Cc1c(-c2cccs2)cc(C2CC2)nc1SCC(N)=O`, 1.77%.
As to `COc1ccccc1NC(=O)C(C/C=C(/C)Cl)C(C)=O` (stereo not drawn), the “hERG current change (%, negative = inhibition) at 1uM” value is 4.54%.
